# The list shows a part of the results. Many values rest on one well or one pass, so single values are uncertain.
# How the values were obtained:
# Assay in all cases: cell count relative to DMSO control; melanoma cells; higher = more viable cells
# Settings in all cases: library dose: standard library concentration; 72 h
# IST-MEL1 = test system: IST-MEL1
# LB2518-MEL = test system: LB2518-MEL
# LOXIMVI = test system: LOXIMVI
# MEL-HO = test system: MEL-HO
# MZ2-MEL = test system: MZ2-MEL
# MeWo = test system: MeWo
# RPMI7951 = test system: RPMI7951
# RVH-421 = test system: RVH-421
# SkMel28 = test system: SkMel28
# SkMel2 = test system: SkMel2
# SkMel30 = test system: SkMel30
# SkMel5 = test system: SkMel5
# UACC257 = test system: UACC257
# UACC62 = test system: UACC62
# WM115 = test system: WM115
# WM1716 = test system: WM1716
# WM1745 = test system: WM1745
# WM3526 = test system: WM3526
# WM3619 = test system: WM3619
# WM451Lu = test system: WM451Lu
# 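Further: cells treated in 1,536-well plates, then fixed and DAPI-stained, with nuclei counted from automated high-throughput microscope images.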
SMILES,cell count (IST-MEL1),cell count (LB2518-MEL),cell count (LOXIMVI),cell count (MEL-HO),cell count (MZ2-MEL),cell count (MeWo),cell count (RPMI7951),cell count (RVH-421),cell count (SkMel28),cell count (SkMel2),cell count (SkMel30),cell count (SkMel5),cell count (UACC257),cell count (UACC62),cell count (WM115),cell count (WM1716),cell count (WM1745),cell count (WM3526),cell count (WM3619),cell count (WM451Lu)
"COc1ccc(-c2ccc3c(N4CCOCC4)nc(N4C[C@@H](C)O[C@@H](C)C4)nc3n2)cc1CO + Oc1nc(-c2ccc(C(F)(F)F)cc2)nc2c1CSCC2 [XAV939] (first compound 0.1 µM, partner dose 10 µM)",91.4%,79.3%,122%,67.7%,79.2%,77.4%,79.6%,73.6%,75.6%,72%,94.4%,65.8%,85.9%,97.2%,63%,82.1%,69.4%,81.2%,59.8%,100%
"CCN(CC)CCCCNc1ncc2cc(-c3cc(OC)cc(OC)c3)c(NC(=O)NC(C)(C)C)nc2n1 + O=C1NC(=O)/C(=C/c2ccc(-c3ccc(F)cc3O)o2)S1 [AS252424] (first compound 0.5 µM, partner dose 5 µM)",109%,90.5%,76.3%,79.3%,8.6%,88.6%,81%,109%,91.4%,89.6%,90.2%,90.8%,99.2%,111%,85.8%,126%,80.5%,80.5%,90.5%,62.4%
"N#Cc1c(O)c2c(-c3ccc(-c4ccccc4O)cc3)csc2[nH]c1=O + CC(C)CCN1c2nc(Nc3cc(F)c(O)c(F)c3)ncc2N(C)C(=O)C1C [BID1870] (first compound 10 µM, partner dose 1 µM)",93.6%,87.4%,104%,84%,95%,92.1%,120%,82.9%,62.3%,80.4%,91%,105%,104%,71.2%,106%,89.5%,86.3%,78.6%,64.4%,86.5%
"Oc1nc(-c2ccc(C(F)(F)F)cc2)nc2c1CSCC2 + O=c1cc(-c2cccc3c2Sc2ccccc2S3)oc(N2CCOCC2)c1 [KU55933] (first compound 10 µM, partner dose 5 µM)",94.9%,102%,126%,76.2%,102%,78.5%,75.4%,106%,110%,85.6%,88.7%,76.4%,83.1%,112%,86.5%,71.1%,65%,86.1%,66.8%,91.6%
"O=C(O)C(=O)Nc1sc2c(c1C(=O)O)CCNC2 + c1cc(-c2cnn3cc(-c4ccc(OCCN5CCCCC5)cc4)cnc23)ccn1 [Dorsomorphin] (first compound 8.33333 µM, partner dose 2 µM)",103%,100%,101%,83%,75%,63.4%,89%,107%,86.3%,100%,82.4%,70.8%,71.8%,95.9%,77.4%,73.3%,50.9%,78.6%,89.2%,81.8%
"COC(=O)c1sccc1S(=O)(=O)Nc1ccc(Nc2ccccc2)cc1OC + Cc1cc([N+](=O)[O-])ccc1NS(=O)(=O)c1cc(Cl)ccc1Cl [FH535] (first compound 5 µM, partner dose 5 µM)",62%,155%,86.9%,48.5%,72.2%,81.1%,76.3%,78.4%,64.5%,79.4%,77.1%,71.8%,71.6%,118%,108%,75.5%,77%,73.6%,78.8%,85.4%
"COc1ccc(-c2ccc3c(N4CCOCC4)nc(N4C[C@@H](C)O[C@@H](C)C4)nc3n2)cc1CO + CCN(CC)CCCCNc1ncc2cc(-c3cc(OC)cc(OC)c3)c(NC(=O)NC(C)(C)C)nc2n1 [PD173074] (first compound 0.1 µM, partner dose 0.5 µM)",91.2%,70.8%,79.5%,84.4%,54.3%,77%,69.2%,77.9%,64%,77.7%,84.6%,66.4%,99%,98.5%,81.6%,98.4%,82.5%,84.6%,59.2%,75.7%
"COc1ccc(COc2ccc(Cc3cnc(N)nc3N)cc2OC)cc1 + Cc1cc([N+](=O)[O-])ccc1NS(=O)(=O)c1cc(Cl)ccc1Cl [FH535] (first compound 5 µM, partner dose 5 µM)",59.2%,71.5%,65.2%,43.9%,5.8%,70.6%,73.6%,51.8%,44.6%,76.3%,83.3%,61.2%,56.6%,91.5%,70.2%,69.6%,71.9%,60.2%,76.3%,81.2%
"N#Cc1c(O)c2c(-c3ccc(-c4ccccc4O)cc3)csc2[nH]c1=O + O=C1NC(=O)/C(=C/c2ccc(-c3ccc(F)cc3O)o2)S1 [AS252424] (first compound 10 µM, partner dose 5 µM)",98.1%,101%,116%,86.4%,94.4%,96.1%,122%,97.7%,113%,98.9%,104%,83.2%,97.8%,98.7%,77.5%,98.4%,96.9%,90.1%,88%,87.5%

# — the supplement of paper PMC4604168 (melanoma cell lines)
